Source: the supplement of paper PMC4967469
A lower IC50 marks a more sensitive line; a limit (>, <) means that the fit lies beyond the doses tested. AUC sums up the same curve from the lowest dose to the 256-fold higher top dose; it is 1 without any effect and falls as sensitivity rises. For part of these data: The top dose, if marked as inferred, was calculated from the reported fits.

Key:
Assay in all cases: Viability of human cancer cell lines after 72 h of drug (GDSC screen)
[1] = compound: N=C(N)NC(=N)NCCc1ccccc1 [Phenformin]; conditions: top dose 4000 µM; top dose inferred
Protocol: (§1)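 Human cancer cell lines in 384-well plates, medium with 10% serum, drug for 72 h over a 256-fold dose range (nine 2-fold or five 4-fold steps up to the top dose). Adherent lines were fixed and stained with the nucleic acid dye Syto60, suspension lines read with resazurin; signal relative to control wells, capped at 0 and 100%. One two-parameter sigmoid per drug and line, fitted in a mixed model over all curves with the slope shared within a line.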

[2] = compound: COc1cc2ncnc(Nc3cc(Br)c(O)c(Br)c3)c2cc1OC [WHI-P97]; conditions: top dose 10.24 µM; top dose inferred
Protocol: as §1

[3] = compound: COc1cc2nccc(Oc3ccc(NC(=O)C4(C(=O)Nc5ccc(F)cc5)CC4)cc3)c2cc1OC [XL-184]; conditions: top dose 5.12 µM; top dose inferred
Protocol: as §1

[4] = compound: COc1cc2ncnc(Nc3ccc(F)c(Cl)c3)c2cc1OCCCN1CCOCC1 [Gefitinib]; conditions: top dose 0.5 µM
Protocol: as §1

[5] = compound: C=CC(=O)Nc1cc(NC(=O)c2ccc(C)c(NC(=O)c3ccno3)c2)cc(C(F)(F)F)c1 [QL-XI-92]; conditions: top dose 10.24 µM; top dose inferred
Protocol: as §1

[6] = compound: CNCc1ccc(-c2[nH]c3cc(F)cc4c3c2CCNC4=O)cc1 [AG-014699]; conditions: top dose 5 µM; top dose inferred
Protocol: as §1

[7] = compound: CCC1=C[C@@H]2CN(C1)Cc1c([nH]c3ccccc13)[C@@](C(=O)OC)(c1cc3c(cc1OC)N(C)[C@H]1[C@@](O)(C(=O)OC)[C@H](OC(C)=O)[C@]4(CC)C=CCN5CC[C@]31[C@@H]54)C2 [Vinorelbine]; conditions: top dose 0.064 µM; top dose inferred
Protocol: as §1

[8] = compound: O=c1cc(N2CCOCC2)oc2c(-c3cccc4c3sc3ccccc34)cccc12 [NU-7441]; conditions: top dose 2 µM; top dose inferred
Protocol: as §1

[9] = compound: O=c1cc(CN2CCOCC2)occ1OCCCCCSc1ccnc2cc(C(F)(F)F)ccc12 [EHT 1864]; conditions: top dose 10 µM; top dose inferred
Protocol: as §1

Cell Line	AUC [1]	IC50 [1]	AUC [2]	IC50 [2]	AUC [3]	IC50 [3]	AUC [4]	IC50 [4]	AUC [5]	IC50 [5]	AUC [6]	IC50 [6]	AUC [7]	IC50 [7]	AUC [8]	IC50 [8]	AUC [9]	IC50 [9]
SR (lymphoid neoplasm, suspension)	0.508	263 µM	0.937	> 10.2 µM	0.911	> 5.12 µM	0.987	> 0.5 µM	0.692	2.08 µM	0.906	> 5 µM	0.524	0.00461 µM	0.899	> 2 µM	0.92	> 10 µM
SU8686 (pancreas, adherent)	0.813	2490 µM	0.977	> 10.2 µM	0.982	> 5.12 µM	0.905	> 0.5 µM	0.982	> 10.2 µM	0.974	> 5 µM	0.768	0.0269 µM	0.96	> 2 µM	0.959	> 10 µM
SU-DHL-5 (B-cell lymphoma, suspension)	0.015	< 15.6 µM	0.994	> 10.2 µM	0.916	4.2 µM	0.983	> 0.5 µM	0.895	7.01 µM	0.976	> 5 µM	0.387	0.00212 µM	0.912	1.58 µM	0.981	> 10 µM
SUIT-2 (pancreas, adherent)	0.461	194 µM	0.952	> 10.2 µM	0.843	3.9 µM	0.982	> 0.5 µM	0.948	> 10.2 µM	0.976	> 5 µM	0.866	0.0616 µM	0.986	> 2 µM	0.968	> 10 µM
SW13 (adrenal gland, adherent)	0.863	3520 µM	0.988	> 10.2 µM	0.988	> 5.12 µM	0.936	> 0.5 µM	0.987	> 10.2 µM	0.965	> 5 µM	0.544	0.00528 µM	0.966	> 2 µM	0.797	4.8 µM
SW626 (ovary, adherent)	0.778	1940 µM	0.957	> 10.2 µM	0.926	> 5.12 µM	0.983	> 0.5 µM	0.933	> 10.2 µM	0.984	> 5 µM	0.757	0.0259 µM	0.967	> 2 µM	0.956	> 10 µM
SW780 (bladder, adherent)	0.738	1280 µM	0.985	> 10.2 µM	0.938	> 5.12 µM	0.985	> 0.5 µM	0.986	> 10.2 µM	0.986	> 5 µM	0.678	0.0133 µM	0.983	> 2 µM	0.959	> 10 µM
SW948 (large intestine, adherent)	0.543	344 µM	0.962	> 10.2 µM	0.937	> 5.12 µM	0.979	> 0.5 µM	0.976	> 10.2 µM	0.982	> 5 µM	0.732	0.0254 µM	0.982	> 2 µM	0.965	> 10 µM
SW1271 (small cell lung carcinoma, adherent)	0.762	1640 µM	0.828	7.64 µM	0.872	> 5.12 µM	0.984	> 0.5 µM	0.911	> 10.2 µM	0.975	> 5 µM	0.754	0.0245 µM	0.978	> 2 µM	0.984	> 10 µM
SW1417 (large intestine, adherent)	0.835	3280 µM	0.969	> 10.2 µM	0.937	> 5.12 µM	0.986	> 0.5 µM	0.977	> 10.2 µM	0.986	> 5 µM	0.909	> 0.064 µM	0.978	> 2 µM	0.962	> 10 µM
SW1573 (lung adenocarcinoma, adherent)	0.71	1220 µM	0.974	> 10.2 µM	0.967	> 5.12 µM	0.976	> 0.5 µM	0.963	> 10.2 µM	0.875	> 5 µM	0.711	0.0197 µM	0.96	> 2 µM	0.878	> 10 µM
SW1710 (bladder, adherent)	0.929	> 4000 µM	0.92	> 10.2 µM	0.927	> 5.12 µM	0.977	> 0.5 µM	0.906	> 10.2 µM	0.935	> 5 µM	0.441	0.00275 µM	0.974	> 2 µM	0.899	> 10 µM
SW1783 (glioma, adherent)	0.732	1060 µM	0.991	> 10.2 µM	0.962	> 5.12 µM	0.982	> 0.5 µM	0.988	> 10.2 µM	0.99	> 5 µM	0.953	> 0.064 µM	0.965	> 2 µM	0.954	> 10 µM
